# The other results are listed elsewhere or left out.
# B1: CLEC5A (Homo sapiens), Q9NY25 (protein)
# chain: MNWHMIISGLIVVVLKVVGMTLFLLYFPQIFNKSNDGFTTTRSYGTVSQIFGSSSPSPNGFITTRSYGTVCPKDWEFYQARCFFLSTSESSWNESRDFCKGKGSTLAIVNTPEKLKFLQDITDAEKYFIGLIYHREEKRWRWINNSVFNGNVTNQNQNFNCATIGLTKTFDAASCDISYRRICEKNAK
# Tests used:
# Assay in all cases: glycan array binding signal (z-score within array); higher = stronger binding
# Settings in all cases: glycan notation: IUPAC condensed, linker removed
# [1] = biological target: Fuc(a1-2)Gal(b1-3)[Fuc(a1-4)]GlcNAc(b1-3)Gal(b1-4)Glc
# Outline: (§1)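 Glycan array binding is given as a within-array Z-score, which can be read as non-binding when negative. The arrays, 3228 of them, came from the Consortium for Functional Glycomics database and were retained only where the protein sequence was available. Z-scores were averaged across arrays of the same protein sequence at different concentrations or buffers and across linkers.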
# [2] = biological target: Fuc(a1-2)Gal(b1-3)[Fuc(a1-4)]GlcNAc(b1-3)Gal(b1-4)[Fuc(a1-3)]GlcNAc(b1-3)Gal(b1-4)Glc
# Outline: as §1
# [3] = biological target: Fuc(a1-2)Gal(b1-3)[Fuc(a1-4)]GlcNAc(b1-3)[Fuc(a1-2)]Gal(b1-4)Glc
# Outline: as §1
# [4] = biological target: Fuc(a1-2)Gal(b1-3)[Fuc(a1-4)]GlcNAc(b1-3)[Fuc(a1-3)[Gal(b1-4)]GlcNAc(b1-6)]Gal(b1-4)Glc
# Outline: as §1
# [5] = biological target: Fuc(a1-2)Gal(b1-3)[Fuc(a1-4)]GlcNAc(b1-3)[Gal(b1-4)GlcNAc(b1-6)]Gal(b1-4)Glc
# Outline: as §1
# [6] = biological target: Fuc(a1-2)Gal(b1-4)Fuc(a1-3)]GlcNAc(b1-2)Man(a1-3)[Fuc(a1-2)Gal(b1-4)[Fuc(a1-3)]GlcNAc(b1-2)Man(a1-6)]Man(b1-4)GlcNAc(b1-4)GlcNAc
# Outline: as §1
# Fuc(a1-2)Gal(b1-4)Glc = biological target: Fuc(a1-2)Gal(b1-4)Glc
# Outline: as §1
# Fuc(a1-2)Gal(b1-4)Glc6S = biological target: Fuc(a1-2)Gal(b1-4)Glc6S
# Outline: as §1
# Fuc(a1-2)Gal(b1-4)GlcNAc = biological target: Fuc(a1-2)Gal(b1-4)GlcNAc
# Outline: as §1
# [7] = biological target: Fuc(a1-2)Gal(b1-4)GlcNAc(b1-2)Man
# Outline: as §1
# [8] = biological target: Fuc(a1-2)Gal(b1-4)GlcNAc(b1-2)Man(a1-3)[Fuc(a1-2)Gal(b1-4)GlcNAc(b1-2)Man(a1-6)]Man(b1-4)GlcNAc(b1-4)GlcNAc
# Outline: as §1
# [9] = biological target: Fuc(a1-2)Gal(b1-4)GlcNAc(b1-2)Man(a1-3)[Fuc(a1-2)Gal(b1-4)GlcNAc(b1-2)Man(a1-6)]Man(b1-4)GlcNAc(b1-4)[Fuc(a1-6)]GlcNAc
# Outline: as §1
# [10] = biological target: Fuc(a1-2)Gal(b1-4)GlcNAc(b1-2)[Fuc(a1-2)Gal(b1-4)GlcNAc(b1-4)]Man(a1-3)[Fuc(a1-2)Gal(b1-4)GlcNAc(b1-2)Man(a1-6)]Man(b1-4)GlcNAc(b1-4)GlcNAc
# Outline: as §1
# [11] = biological target: Fuc(a1-2)Gal(b1-4)GlcNAc(b1-3)Gal(b1-4)GlcNAc
# Outline: as §1
# [12] = biological target: Fuc(a1-2)Gal(b1-4)GlcNAc(b1-3)Gal(b1-4)GlcNAc(b1-2)Man(a1-3)[Fuc(a1-2)Gal(b1-4)GlcNAc(b1-3)Gal(b1-4)GlcNAc(b1-2)Man(a1-6)]Man(b1-4)GlcNAc(b1-4)GlcNAc
# Outline: as §1
# [13] = biological target: Fuc(a1-2)Gal(b1-4)GlcNAc(b1-3)Gal(b1-4)GlcNAc(b1-3)Gal(b1-4)GlcNAc
# Outline: as §1
# [14] = biological target: Fuc(a1-2)Gal(b1-4)GlcNAc(b1-3)GalNAc
# Outline: as §1
# [15] = biological target: Fuc(a1-2)Gal(b1-4)GlcNAc(b1-3)[Fuc(a1-2)Gal(b1-4)GlcNAc(b1-6)]GalNAc
# Outline: as §1
# [16] = biological target: Fuc(a1-2)Gal(b1-4)GlcNAc(b1-3)[Fuc(a1-3)[Gal(b1-4)]GlcNAc(b1-6)]Gal(b1-4)Glc
# Outline: as §1
# [17] = biological target: Fuc(a1-2)Gal(b1-4)GlcNAc(b1-6)GalNAc
# Outline: as §1
# [18] = biological target: Fuc(a1-2)Gal(b1-4)GlcNAc6S
# Outline: as §1
# [19] = biological target: Fuc(a1-2)Gal(b1-4)[Fuc(a1-3)]GlcNAc
# Outline: as §1
# [20] = biological target: Fuc(a1-2)Gal(b1-4)[Fuc(a1-3)]GlcNAc(b1-2)Man(a1-3)[Fuc(a1-2)Gal(b1-4)[Fuc(a1-3)]GlcNAc(b1-2)Man(a1-6)]Man(b1-4)GlcNAc(b1-4)GlcNAc
# Outline: as §1
# [21] = biological target: Fuc(a1-2)Gal(b1-4)[Fuc(a1-3)]GlcNAc(b1-2)Man(a1-3)[Fuc(a1-2)Gal(b1-4)[Fuc(a1-3)]GlcNAc(b1-2)Man(a1-6)]Man(b1-4)GlcNAc(b1-4)[Fuc(a1-6)]GlcNAc
# Outline: as §1
# [22] = biological target: Fuc(a1-2)Gal(b1-4)[Fuc(a1-3)]GlcNAc(b1-2)[Fuc(a1-2)Gal(b1-4)[Fuc(a1-3)]GlcNAc(b1-4)]Man(a1-3)[Fuc(a1-2)Gal(b1-4)[Fuc(a1-3)]GlcNAc(b1-2)Man(a1-6)]Man(b1-4)GlcNAc(b1-4)GlcNAc
# Outline: as §1
# [23] = biological target: Fuc(a1-2)Gal(b1-4)[Fuc(a1-3)]GlcNAc(b1-3)Gal(b1-4)Glc
# Outline: as §1
# [24] = biological target: Fuc(a1-2)Gal(b1-4)[Fuc(a1-3)]GlcNAc(b1-3)Gal(b1-4)[Fuc(a1-3)]GlcNAc
# Outline: as §1
# [25] = biological target: Fuc(a1-2)Gal(b1-4)[Fuc(a1-3)]GlcNAc(b1-3)Gal(b1-4)[Fuc(a1-3)]GlcNAc(b1-3)Gal(b1-4)[Fuc(a1-3)]GlcNAc
# Outline: as §1
# [26] = biological target: Fuc(a1-2)Gal(b1-4)[Fuc(a1-3)]GlcNAc(b1-3)GalNAc
# Outline: as §1
# [27] = biological target: Fuc(a1-2)Gal(b1-4)[Fuc(a1-3)]GlcNAc(b1-3)[Fuc(a1-2)]Gal(b1-4)Glc
# Outline: as §1
binder,measurement,setting,value
B1,glycan array binding signal (z-score),[1],0.066
same,glycan array binding signal (z-score),[2],0.837
same,glycan array binding signal (z-score),[3],-0.127
same,glycan array binding signal (z-score),[4],-0.019
same,glycan array binding signal (z-score),[5],-0.428
same,glycan array binding signal (z-score),[6],0.292
same,glycan array binding signal (z-score),Fuc(a1-2)Gal(b1-4)Glc,-0.134
same,glycan array binding signal (z-score),Fuc(a1-2)Gal(b1-4)Glc6S,-0.131
same,glycan array binding signal (z-score),Fuc(a1-2)Gal(b1-4)GlcNAc,-0.165
same,glycan array binding signal (z-score),[7],-0.152
same,glycan array binding signal (z-score),[8],-0.162
same,glycan array binding signal (z-score),[9],-0.096
same,glycan array binding signal (z-score),[10],-0.099
same,glycan array binding signal (z-score),[11],-0.114
same,glycan array binding signal (z-score),[12],-0.047
same,glycan array binding signal (z-score),[13],0.158
same,glycan array binding signal (z-score),[14],0.474
same,glycan array binding signal (z-score),[15],-0.023
same,glycan array binding signal (z-score),[16],-0.172
same,glycan array binding signal (z-score),[17],0.121
same,glycan array binding signal (z-score),[18],-0.131
same,glycan array binding signal (z-score),[19],-0.07
same,glycan array binding signal (z-score),[20],0.679
same,glycan array binding signal (z-score),[21],-0.051
same,glycan array binding signal (z-score),[22],0.008
same,glycan array binding signal (z-score),[23],-0.32
same,glycan array binding signal (z-score),[24],-0.144
same,glycan array binding signal (z-score),[25],-0.189
same,glycan array binding signal (z-score),[26],0.198
same,glycan array binding signal (z-score),[27],-0.32
